From the supplement of paper PMC12217912
The list shows a part of the results. The full chains were built here from the parent and the listed change. Values near 0.05 are background.

B1: TEV protease; numbered along this chain (parent)
chain: MGESLFKGPRDYNPISSSICHLTNESDGHTTSLYGIGFGPFIITNKHLFRRNNGTLVVQSLHGVFKVKDTTTLQQHLVDGRDMIIIRMPKDFPPFPQKLKFREPQREERICLVTTNFQTKSMSSMVSDTSCTFPSGDGIFWKHWIQTKDGQCGSPLVSTRDGFIVGIHSASNFTNTNNYFTSVPKNFMELLTNQEAQQWVSGWRLNADSVLWGGHKVFMVKPEEPFQPVKEATQL

Variants of: B1
Test: raw area under fraction-flipped curve 0-4 h after induction (AUC4h, not background-subtracted), DNA-recorder readout of cleavage of the substrate (dimensionless); higher = more cleavage of the substrate by the protease variant
Details: temperature: 34 °C; time window: 0-4 h after rhamnose induction
Procedure: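 In vivo DNA recorder in E. coli TOP10(DE3) ΔrhaA at 34 °C. Each TEVp single-site mutant (parent TEVp 0) is paired with a single-site variant of the 7-mer TEVs (canonical ENLYFQ|S). The substrate sits between flexible linkers in a Bxb1-sfGFP-TEVs-SsrA fusion, so cleavage stabilises Bxb1 and speeds flipping of a recombination array, read by NGS. The value is the raw area under the fraction-flipped curve over 0-4 h after rhamnose induction (AUC4h), with ≥20 reads per time point. It is not background-subtracted; inactive controls average about 0.047.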
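Also: Bxb1 expression induced with 0.2% (w/v) L-rhamnose at OD600 near 0.5, cultures sampled hourly, flipped fraction per protease–substrate barcode pair counted by paired-end Illumina sequencing.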

Variant	area with substrate ENLAFQS	area with substrate ENLCFQS	area with substrate ENLDFQS	area with substrate ENLEFQS	area with substrate ENLHFQS	area with substrate ENLKFQS	area with substrate ENLLFQS	area with substrate ENLNFQS	area with substrate ENLPFQS	area with substrate ENLRFQS	area with substrate ENLSFQS	area with substrate ENLFFQS	area with substrate ENLMFQS	area with substrate ENLQFQS	area with substrate ENLVFQS	area with substrate ENLIFQS	area with substrate ENLWFQS	area with substrate ENLGFQS	area with substrate ENLTFQS
MGESLFKGPRDYNPISSSICHLTNESDGHTTSLYGIGFGPFIITNKHLFRRNNGTLVVQSLHGVFKVKDTTTLQQHLVDGRDMIIIRMPKDFPPFPQKLKFREPQREERICLVTTNFQTKSMSSMVSDTSCTFPSGDGIFWKHWIQTKDGQCGSPLVSTRDGFIVGIHSASNFTNTNNYFTSVPKNFMELLTNQEAQQWVSGWRLNADSVLWGGHKVFMVKPEEPFCPVKEATQL [Q227C]	0.0649	0.0628	0.069	0.0609	0.0578	0.0724	0.09	0.0619	0.0628	0.0819	0.0616	–	–	–	–	–	–	–	–
MGESLFKGPRDYNPISSSICHLTNESDGHTTSLYGIGFGPFIITNKHLFRRNNGTLVVQSLHGVFKVKDTTTLQQHLVDGRDMIIIRMPKDFPPFPQKLKFREPQREERICLVTTNFQTKSMSSMVSDTSCTFPSGDGIFWKHWIQTKDGQCGSPLVSTRDGFIVGIHSASNFTNTNNYFTSVPKNFMELLTNQEAQQWVSGWRLNADSVLWGGHKVFMVKPEEPFQMVKEATQL [P228M]	0.0505	0.0676	0.0599	–	0.08	0.0782	0.0722	0.0647	0.0499	0.0741	0.0679	0.091	0.0557	0.0592	0.0519	–	–	–	–
MGESLFKGPRDYNPISSSICHLTNESDGHTTSLYGIGFGPFIITNKHLFRRNNGTLVVQSLHGVFKVKDTTTLQQHLVDGRDMIIIRMPKDFPPFPQKLKFREPQREERICLVTTNFQTKSMSSMVSDTSCTFPSGDGIFWKHWIQTKDGQCGSPLVSTRDGFIVGIHSASNFTNTNNYFTSVPKNFMELLTNQEAQQWVSGWRLNADSVLWGGHKVFMVKPEEPFQGVKEATQL [P228G]	0.0698	–	0.0633	0.0479	0.0727	0.0665	–	0.063	0.0637	0.0714	–	–	–	0.083	0.0812	0.0638	0.0596	–	–
MGESLFKGPRDYNPISSSICHLTNESDGHTTSLYGIGFGPFIITNKHLFRRNNGTLVVQSLHGVFKVKDTTTLQQHLVDGRDMIIIRMPKDFPPFPQKLKFREPQREERICLVTTNFQTKSMSSMVSDTSCTFPSGDGIFWKHWIQTKDGQCGSPLVSTRDGFIVGIHSASNFTNTNNYFTSVPKNFMELLTNQEAQQWVSGWRLNADSVLWGGHKVFMVKPEEPFQPVKEATQK [L235K]	0.0735	0.0728	0.0556	0.0532	0.0795	–	–	–	0.0471	–	0.0587	0.0938	–	0.126	0.112	–	–	–	–
MGESLFKGPRDYNPISSSICHLTNESDGHTTSLYGIGFGPFIITNKHLFRRNNGTLVVQSLHGVFKVKDTTTLQQHLVDGRDMIIIRMPKDFPPFPQKLKFREPQREERICLVTTNFQTKSMSSMVSDTSCTFPSGDGIFWKHWIQTKDGQCGSPLVSTRDGFIVGIHSASNFTNTNNYFTSVPKNFMELLTNQEAQQWVSGWRLNADSVLWGGHKVWMVKPEEPFQPVKEATQL [F218W]	0.0644	0.0615	0.058	–	0.0754	0.0737	–	0.0686	0.0624	0.0655	0.0537	0.086	0.0744	–	0.0752	0.085	0.0487	0.0523	–
MGESLFKGPRDYNPISSSICHLTNESDGHTTSLYGIGFGPFIITNKHLFRRNNGTLVVQSLHGVFKVKDTTTLQQHLVDGRDMIIIRMPKDFPPFPQKLKFREPQREERICLVTTNFQTKSMSSMVSDTSCTFPSGDGIFWKHWIQTKDGQCGSPLVSTRDGFIVGIHSASNFTNTNNYFTSVPKNFMELLTNQEAQQWVSGWRLNADSVLWGGHKVFMVKKEEPFQPVKEATQL [P222K]	0.0558	0.0736	0.0599	–	0.0668	0.0766	–	–	–	0.0629	0.0522	0.074	–	0.0574	–	0.0779	–	0.077	0.0582
MGESLFKGPRDYNPISSSICHLTNESDGHTTSLYGIGFGPFIITNKHLFRRNNGTLVVQSLHGVFKVKDTTTLQQHLVDGRDMIIIRMPKDFPPFPQKLKFREPQREERICLVTTNFQTKSMSSMVSDTSCTFPSGDGIFWKHWIQTKDGQCGSPLVSTRDGFIVGIHSASNFTNTNNYFTSVPKNFMELLTNQEAQQWVSGWRLNADSVLWGGHKKFMVKPEEPFQPVKEATQL [V217K]	0.055	–	0.0684	0.07	0.0421	0.0529	0.074	0.0712	–	0.0405	0.082	–	–	–	0.0579	0.0925	0.0573	–	–
MGESLFKGPRDYNPISSSICHLTNESDGHTTSLYGIGFGPFIITNKHLFRRNNGTLVVQSLHGVFKVKDTTTLQQHLVDGRDMIIIRMPKDFPPFPQKLKFREPQREERICLVTTNFQTKSMSSMVSDTSCTFPSGDGIFWKHWIQTKDGQCGSPLVSTRDGFIVGIHSASNFTNTNNYFTSVPKNFMELLTNQEAQQWVSGWRLNADSVLWGGHKYFMVKPEEPFQPVKEATQL [V217Y]	0.063	–	0.0702	0.0862	–	0.0584	0.0617	–	0.0646	–	0.0544	0.0678	–	0.0553	–	0.071	0.0513	–	–
MGESLFKGPRDYNPISSSICHLTNESDGHTTSLYGIGFGPFIITNKHLFRRNNGTLVVQSLHGVFKVKDTTTLQQHLVDGRDMIIIRMPKDFPPFPQKLKFREPQREERICLVTTNFQTKSMSSMVSDTSCTFPSGDGIFWKHWIQTKDGQCGSPLVSTRDGFIVGIHSASNFTNTNNYFTSVPKNFMELLTNQEAQQWVSGWRLNADSVLWGGHKVFMVKPEEPFQPVQEATQL [K230Q]	0.039	0.0468	0.0527	0.0603	0.0643	0.0664	0.079	–	0.0527	0.0796	0.0715	0.081	–	–	0.133	0.0869	0.0707	–	–
MGESLFKGPRDYNPISSSICHLTNESDGHTTSLYGIGFGPFIITNKHLFRRNNGTLVVQSLHGVFKVKDTTTLQQHLVDGRDMIIIRMPKDFPPFPQKLKFREPQREERICLVTTNFQTKSMSSMVSDTSCTFPSGDGIFWKHWIQTKDGQCGSPLVSTRDGFIVGIHSASNFTNTNNYFTSVPKNFMELLTNQEAQQWVSGWRLNADSVLWGGHKVFMVKPEEPRQPVKEATQL [F226R]	0.0711	0.0844	0.0569	0.0579	0.0492	0.0835	–	0.0719	0.0539	–	0.057	0.0746	–	–	–	0.101	–	0.0575	–
MGESLFKGPRDYNPISSSICHLTNESDGHTTSLYGIGFGPFIITNKHLFRRNNGTLVVQSLHGVFKVKDTTTLQQHLVDGRDMIIIRMPKDFPPFPQKLKFREPQREERICLVTTNFQTKSMSSMVSDTSCTFPSGDGIFWKHWIQTKDGQCGSPLVSTRDGFIVGIHSASNFTNTNNYFTSVPKNFMELLTNQEAQQWVSGWRLNADSVLWGGHKVFMVKPEEMFQPVKEATQL [P225M]	0.078	0.105	0.0554	0.0612	0.0699	–	0.0625	0.0603	0.0683	0.0515	–	0.0893	0.0694	0.0331	0.0703	0.0765	0.0746	–	–
MGESLFKGPRDYNPISSSICHLTNESDGHTTSLYGIGFGPFIITNKHLFRRNNGTLVVQSLHGVFKVKDTTTLQQHLVDGRDMIIIRMPKDFPPFPQKLKFREPQREERICLVTTNFQTKSMSSMVSDTSCTFPSGDGIFWKHWIQTKDGQCGSPLVSTRDGFIVGIHSASNFTNTNNYFTSVPKNFMELLTNQEAQQWVSGWRLNADSVLWGGHKVFMVKPEEGFQPVKEATQL [P225G]	0.0786	0.0662	0.0626	–	0.0681	0.0737	0.0583	0.0696	0.063	0.0967	0.0659	0.0774	–	0.0711	–	–	0.0776	–	–
MGESLFKGPRDYNPISSSICHLTNESDGHTTSLYGIGFGPFIITNKHLFRRNNGTLVVQSLHGVFKVKDTTTLQQHLVDGRDMIIIRMPKDFPPFPQKLKFREPQREERICLVTTNFQTKSMSSMVSDTSCTFPSGDGIFWKHWIQTKDGQCGSPLVSTRDGFIVGIHSASNFTNTNNYFTSVPKNFMELLTNQEAQQWVSGWRLNADSVLWGGHKVFMVKPEEPFQPVKEALQL [T233L]	0.0673	0.0537	0.061	0.0486	0.069	0.0699	–	0.062	0.0479	0.0535	0.0722	–	–	0.109	0.0797	0.0977	–	0.0799	–
MGESLFKGPRDYNPISSSICHLTNESDGHTTSLYGIGFGPFIITNKHLFRRNNGTLVVQSLHGVFKVKDTTTLQQHLVDGRDMIIIRMPKDFPPFPQKLKFREPQREERICLVTTNFQTKSMSSMVSDTSCTFPSGDGIFWKHWIQTKDGQCGSPLVSTRDGFIVGIHSASNFTNTNNYFTSVPKNFMELLTNQEAQQWVSGWRLNADSVLWGGHKVFMVKPWEPFQPVKEATQL [E223W]	0.0702	0.0673	0.0581	0.0858	–	0.0776	–	0.0616	0.0508	0.0905	–	0.0678	0.082	0.0748	0.0743	0.0767	0.0827	–	0.0779
MGESLFKGPRDYNPISSSICHLTNESDGHTTSLYGIGFGPFIITNKHLFRRNNGTLVVQSLHGVFKVKDTTTLQQHLVDGRDMIIIRMPKDFPPFPQKLKFREPQREERICLVTTNFQTKSMSSMVSDTSCTFPSGDGIFWKHWIQTKDGQCGSPLVSTRDGFIVGIHSASNFTNTNNYFTSVPKNFMELLTNQEAQQWVSGWRLNADSVLWGGHKVFMVKPVEPFQPVKEATQL [E223V]	0.0634	–	0.0487	–	0.0582	0.0752	–	–	–	0.0868	–	0.0942	–	0.0578	–	–	0.0664	–	–
MGESLFKGPRDYNPISSSICHLTNESDGHTTSLYGIGFGPFIITNKHLFRRNNGTLVVQSLHGVFKVKDTTTLQQHLVDGRDMIIIRMPKDFPPFPQKLKFREPQREERICLVTTNFQTKSMSSMVSDTSCTFPSGDGIFWKHWIQTKDGQCGSPLVSTRDGFIVGIHSASNFTNTNNYFTSVPKNFMELLTNQEAQQWVSGWRLNADSVLWGGHKVFMVKPEEPFQPVKEATYL [Q234Y]	0.0607	0.0564	0.0703	0.0577	–	0.0713	0.0343	0.0619	0.0574	0.0834	0.0623	0.0791	0.0783	0.0642	–	–	–	–	–
MGESLFKGPRDYNPISSSICHLTNESDGHTTSLYGIGFGPFIITNKHLFRRNNGTLVVQSLHGVFKVKDTTTLQQHLVDGRDMIIIRMPKDFPPFPQKLKFREPQREERICLVTTNFQTKSMSSMVSDTSCTFPSGDGIFWKHWIQTKDGQCGSPLVSTRDGFIVGIHSASNFTNTNNYFTSVPKNFMELLTNQEAQQWVSGWRLNADSVLWGGHKVFMVKPEEPFQPSKEATQL [V229S]	0.0666	0.0651	0.0645	0.0672	0.0811	0.0849	0.0722	–	0.0517	0.0991	0.0655	0.0794	–	0.0856	0.0289	0.092	–	–	–
MGESLFKGPRDYNPISSSICHLTNESDGHTTSLYGIGFGPFIITNKHLFRRNNGTLVVQSLHGVFKVKDTTTLQQHLVDGRDMIIIRMPKDFPPFPQKLKFREPQREERICLVTTNFQTKSMSSMVSDTSCTFPSGDGIFWKHWIQTKDGQCGSPLVSTRDGFIVGIHSASNFTNTNNYFTSVPKNFMELLTNQEAQQWVSGWRLNADSVLWGRHKVFMVKPEEPFQPVKEATQL [G214R]	0.0604	0.0681	0.0583	0.0586	0.028	–	0.0665	–	0.0514	–	–	0.0753	0.0397	0.0613	–	–	0.0576	–	0.0741
